Target: recombinant human TPH2 (Swiss-Prot: Q8IWU9) (Homo sapiens (Human), UniProt Q8IWU9)
Assay: In vitro enzyme activity assay, fluorescence-based, TPH2 inhibition
Settings: read-out: IC50 TPH2 (μM) mean; recombinant human TPH2, 40 μM tryptophan, pH 7.0, mean of sample triplicates

Chain of UniProt Q8IWU9 (Q8IWU9 whole entry): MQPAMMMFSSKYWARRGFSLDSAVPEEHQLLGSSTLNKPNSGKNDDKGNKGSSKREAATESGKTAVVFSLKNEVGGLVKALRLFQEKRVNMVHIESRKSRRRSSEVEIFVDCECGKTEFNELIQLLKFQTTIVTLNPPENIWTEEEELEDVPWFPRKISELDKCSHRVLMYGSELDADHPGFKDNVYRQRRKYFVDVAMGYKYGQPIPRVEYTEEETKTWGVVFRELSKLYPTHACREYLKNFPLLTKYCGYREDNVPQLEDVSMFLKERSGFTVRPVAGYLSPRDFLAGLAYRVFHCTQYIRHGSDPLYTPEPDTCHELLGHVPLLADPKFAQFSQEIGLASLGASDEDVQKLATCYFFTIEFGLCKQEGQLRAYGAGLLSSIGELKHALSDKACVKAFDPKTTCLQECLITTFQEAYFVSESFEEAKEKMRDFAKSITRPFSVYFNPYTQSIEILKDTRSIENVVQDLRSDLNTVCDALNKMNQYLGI

Row | SMILES | IC50 [µM]
1 | CCn1c(=O)[nH]c(=O)c2c1nc(Cc1cn3cc(Cl)sc3n1)n2Cc1ccc(NC(C)=O)cc1 [Ex. 28, N-(4-((8-((2-chloroimidazo[2,1-b]thiazol-6-yl)methyl)-3-ethyl-1,2,3,6-tetrahydro-2,6-dioxopurin-7-yl)methyl)phenyl)acetamide] | 0.017
2 | CCn1c(=O)[nH]c(=O)c2c1nc(Cc1cn3cc(Cl)sc3n1)n2Cc1ccc(-n2cncn2)cc1 [Ex. 29, 7-(4-(1H-1,2,4-triazol-1-yl)benzyl)-8-((2-chloroimidazo[2,1-b]thiazol-6-yl)methyl)-3-ethyl-3,7-dihydro-1H-purine-2,6-dione] | 0.023
3 | CCn1c(=O)[nH]c(=O)c2c1nc(Cc1cn3cc(C)sc3n1)n2Cc1ccc(NC(C)=O)cc1 [Ex. 30, N-(4-((3-ethyl-8-((2-methylimidazo[2,1-b]thiazol-6-yl)methyl)-2,6-dioxo-1,2,3,6-tetrahydro-7H-purin-7-yl)methyl)phenyl)acetamide] | 0.016
4 | CCn1c(=O)[nH]c(=O)c2c1nc(Cc1cn3c(n1)CCCC3)n2Cc1ccc(-n2cncn2)cc1 [Ex. 31, 7-(4-(1H-1,2,4-triazol-1-yl)benzyl)-3-ethyl-8-((5,6,7,8-tetrahydroimidazo[1,2-a]pyridin-2-yl)methyl)-3,7-dihydro-1H-purine-2,6-dione] | 0.031
5 | CCn1c(=O)[nH]c(=O)c2c1nc(Cc1cn3cc(C)sc3n1)n2Cc1ccc(N2CCCC2=O)cc1 [Ex. 32, 3-ethyl-8-((2-methylimidazo[2,1-b]thiazol-6-yl)methyl)-7-(4-(2-oxopyrrolidin-1-yl)benzyl)-3,7-dihydro-1H-purine-2,6-dione] | 0.017
6 | CCn1c(=O)[nH]c(=O)c2c1nc(Cc1cn3c(n1)CCCC3)n2Cc1ccc(-n2ccnc2)cc1 [Ex. 33, 7-(4-(1H-imidazol-1-yl)benzyl)-3-ethyl-8-((5,6,7,8-tetrahydroimidazo[1,2-a]pyridin-2-yl)methyl)-3,7-dihydro-1H-purine-2,6-dione] | 0.029
7 | CCn1c(=O)[nH]c(=O)c2c1nc(Cc1cn3cc(Cl)sc3n1)n2Cc1ccc(N2CC(F)(F)C2)cc1 [Ex. 34, 8-((2-chloroimidazo[2,1-b]thiazol-6-yl)methyl)-7-(4-(3,3-difluoroazetidin-1-yl)benzyl)-3-ethyl-3,7-dihydro-1H-purine-2,6-dione] | 0.096
8 | CCn1c(=O)[nH]c(=O)c2c1nc(Cc1cn3c(n1)CCCC3)n2Cc1ccc(NC(C)=O)cc1 [Ex. 35, N-(4-((3-ethyl-2,6-dioxo-8-((5,6,7,8-tetrahydroimidazo[1,2-a]pyridin-2-yl)methyl)-1,2,3,6-tetrahydro-7H-purin-7-yl)methyl)phenyl)acetamide] | 0.036
9 | CCn1c(=O)[nH]c(=O)c2c1nc(Cc1cn3c(n1)CCCC3)n2Cc1ccc(N2CCCC2=O)cc1 [Ex. 36, 3-ethyl-7-(4-(2-oxopyrrolidin-1-yl)benzyl)-8-((5,6,7,8-tetrahydroimidazo[1,2-a]pyridin-2-yl)methyl)-3,7-dihydro-1H-purine-2,6-dione] | 0.03
10 | CCn1c(=O)[nH]c(=O)c2c1nc(Cc1cn3c(n1)CCCC3)n2Cc1ccc(N2CC(F)(F)C2)cc1 [Ex. 37, 7-(4-(3,3-difluoroazetidin-1-yl)benzyl)-3-ethyl-8-((5,6,7,8-tetrahydroimidazo[1,2-a]pyridin-2-yl)methyl)-3,7-dihydro-1H-purine-2,6-dione] | 0.032
11 | CCn1c(=O)[nH]c(=O)c2c1nc(Cc1cn3c(n1)CCCC3)n2Cc1ccc(N2CC(OC)C2)cc1 [Ex. 38, 3-ethyl-7-(4-(3-methoxyazetidin-1-yl)benzyl)-8-((5,6,7,8-tetrahydroimidazo[1,2-a]pyridin-2-yl)methyl)-3,7-dihydro-1H-purine-2,6-dione] | 0.035
12 | CCn1c(=O)[nH]c(=O)c2c1nc(Cc1cn3c(n1)CCCC3)n2Cc1ccc(-c2noc(C)n2)cc1 [Ex. 39, 3-ethyl-7-(4-(5-methyl-1,2,4-oxadiazol-3-yl)benzyl)-8-((5,6,7,8-tetrahydroimidazo[1,2-a]pyridin-2-yl)methyl)-3,7-dihydro-1H-purine-26-dione] | 0.026

From patent US10683309B2, “Xanthine derivatives, their use as a medicament, and pharmaceutical preparations comprising the same” (MAX-DELBRÜCK-CENTRUM FÜR MOLEKULARE MEDIZIN, priority 2016, dated 2020)
